Our source for the binding signal (PBM z-score against 500 random probes) values is article PMC6555819.

This is one part of the list.

The experiment deals with T1, VDR (Homo sapiens) (UniProt P11473).
T1 sequence: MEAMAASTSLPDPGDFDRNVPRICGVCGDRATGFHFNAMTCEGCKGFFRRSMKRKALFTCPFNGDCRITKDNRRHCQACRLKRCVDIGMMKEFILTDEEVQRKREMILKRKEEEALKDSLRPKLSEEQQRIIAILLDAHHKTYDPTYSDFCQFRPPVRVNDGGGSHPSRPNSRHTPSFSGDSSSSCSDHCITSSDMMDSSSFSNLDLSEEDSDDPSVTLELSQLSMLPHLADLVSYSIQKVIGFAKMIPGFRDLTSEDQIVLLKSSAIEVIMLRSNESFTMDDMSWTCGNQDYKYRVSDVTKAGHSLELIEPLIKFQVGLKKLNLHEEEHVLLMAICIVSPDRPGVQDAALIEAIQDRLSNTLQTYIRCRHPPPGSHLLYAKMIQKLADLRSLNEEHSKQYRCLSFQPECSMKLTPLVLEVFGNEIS
The conditions noted are these: 270 nM, no RXRa, PBS pH 7.4, 2% milk, 0.02% Triton X-100, 1 mM DTT, BSA, 0.4 mg/ml salmon testes DNA; double strand, one strand shown.
“GCAGCTTGACTTTGGTGACATTCTTCCTTCGTCCCTGCGATTGACAGCGTAGAATGAAGG”: the binding signal (PBM z-score against 500 random probes) was -0.17.

In turn, “GCTACACTCTCCCAAGACTAAACCAGGAAGAAGTTGGCGATTGACAGCGTAGAATGAAGG” displayed a binding signal (PBM z-score against 500 random probes) of 0.48. As for “GCCCTCTGAGCCTCTTGAACCATCTGGAATGTCAATGCGATTGACAGCGTAGAATGAAGG”, the figure is 0.41; as for “GCATCGGGAGTGATGATAAGTAAGGCAAGCCCTGTTGCGATTGACAGCGTAGAATGAAGG”, -0.45; as for “GCATGAGATTTCACTGTGTTAGCCAGGATGGTCTCCGCGATTGACAGCGTAGAATGAAGG”, -0.61. As to “GCTATCCTGCCTGCCTCTTCCCACTCCAGCCACCTGGCGATTGACAGCGTAGAATGAAGG”, the binding signal (PBM z-score against 500 random probes) stood at 0.09.

In the case of “GCTATGGTTTGGCTGTGTCTCCATTCAAATCTCAACGCGATTGACAGCGTAGAATGAAGG”, the binding signal (PBM z-score against 500 random probes) is -0.02. For “GCGCTGAAACTGGATCCCTTCCTTACACCTTACACAGCGATTGACAGCGTAGAATGAAGG” the value was 0.17.

As to “GCTTTGAAGACACTGAAGGAGTGAGCCATTTGGATCGCGATTGACAGCGTAGAATGAAGG”, the binding signal (PBM z-score against 500 random probes) was -0.39.

“GCTAGCCCTCTCAGAGGACAGAGCTAGGATAGCATGGCGATTGACAGCGTAGAATGAAGG” registered a binding signal (PBM z-score against 500 random probes) of -0.54. As for “GCATGAAAGTTTAGTATGTGTAGGGTAGTGCTTCATGCGATTGACAGCGTAGAATGAAGG”, the figure is 0.31; as for “GCGAGTTTCCAGCAGATGGCCATCACAACAATACTGGCGATTGACAGCGTAGAATGAAGG”, 0.22.
